Data reported in PubChem BioAssay AID602310 (National Center for Advancing Translational Sciences (NCATS), 2012).
Several values for one entry are separate records, joined by “and”; a condition that tells them apart may be missing. Equal entries are not always repeated. The whole screen tested about 410,000 compounds, of which about 310 (0.076%) were called active. Inconclusive means that the source gave no clear call. Such entries were picked first, then a sample of the others. Calls follow the shape of the dose curve; as a rule, active = well fitted curve in the direction sought with a large enough effect; inconclusive = small, poorly fitted or top-dose-only effect; inactive = flat fitted curve, though single readings scatter. A potency beside an inconclusive call is a rough fit, not a confirmed value.

Each compound was assayed against DNA dC->dU-editing enzyme APOBEC-3G (Homo sapiens) (UniProt Q9HC16) (assay: qHTS for Inhibitors of Vif-A3G Interactions: qHTS). Conditions: HeLa A3G-eYFP + Vif (tagged APOBEC3G with the HIV-1 protein that degrades it), YFP fluorescence, overnight; series mostly up to 46.1 µM.
Chain of UniProt Q9HC16 (Q9HC16 whole entry, looked up): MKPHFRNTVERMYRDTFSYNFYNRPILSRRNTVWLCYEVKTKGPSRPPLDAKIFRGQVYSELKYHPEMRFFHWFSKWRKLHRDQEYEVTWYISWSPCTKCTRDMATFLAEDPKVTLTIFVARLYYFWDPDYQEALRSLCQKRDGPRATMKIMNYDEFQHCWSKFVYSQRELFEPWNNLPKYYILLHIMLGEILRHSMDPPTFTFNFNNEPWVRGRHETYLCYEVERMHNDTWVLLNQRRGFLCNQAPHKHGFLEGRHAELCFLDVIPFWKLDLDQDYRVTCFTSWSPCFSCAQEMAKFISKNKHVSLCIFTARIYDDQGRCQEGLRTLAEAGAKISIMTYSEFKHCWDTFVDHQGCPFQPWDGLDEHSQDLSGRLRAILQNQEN
Summary of the method: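 HeLa cells stably expressing Vif and C-terminally eYFP-tagged A3G, seeded overnight at 37 deg C, then exposed to compound by pintool overnight at 37 deg C. Rise in yellow fluorescence (Ex 488/Em 500-530, Acumen) marks blocked Vif-driven A3G degradation.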
Also: nearly all actives have a fitted effect of over 60% in size.
Potency is read from the fitted curve at half-maximal effect.

SMILES	Potency
COc1ccc(-c2ccc(CN3C(CC(C)C)C(=O)N(Cc4cn(CC5CCCCC5)nn4)CCS3(=O)=O)cc2)cc1 (stereo not given)	inconclusive: 10 µM [inhibitor, partial curve, poor fit]
COc1ccc(S(=O)(=O)Oc2ccc3ccccc3c2)cc1	inconclusive: 22.4 µM [inhibitor, single point]
CCOC(=O)N1CCN(/C=C(\C#N)c2nc3ccccc3s2)CC1	active: 22.4 µM
CC(C)c1c(C(=O)N/N=C/c2cccc(OCc3ccc(F)cc3)c2)nnn1-c1nonc1N	inactive
CCn1c(SCC(=O)N/N=C/c2c[nH]c3ccccc23)nnc1-c1ccc(Cl)cc1	inconclusive: 22.4 µM [inhibitor, single point]
O=C(/C=C/c1ccccc1Cl)c1cccnc1	inconclusive: 22.4 µM [inhibitor, single point]
Cc1ccc(-c2cc(-c3ccco3)c3c(N)c(C(=O)NN)oc3n2)cc1	inconclusive: 14.1 µM [inhibitor, single point]
O=C(CCc1nc2ccccc2c(=O)[nH]1)Nc1cc(C(F)(F)F)ccc1N1CCOCC1	inconclusive: 22.4 µM [inhibitor, single point]
COC(=O)c1ccc(NCc2cc(O)ccc2O)cc1O	inconclusive: 35.5 µM [inhibitor, single point]
COc1ccc(C2=NOC(C(=O)NCc3cccnc3)C2)cc1OC (stereo not given)	inconclusive: 35.5 µM [inhibitor, single point]
c1ccc(Cc2c(-c3ccco3)nc3c4ccccc4ccn23)cc1	inconclusive: 22.4 µM [inhibitor, single point]
c1ccc2c(c1)nc(N1CCOCC1)c1nnnn12	inactive
Cc1ccc(Nc2nc(NCC3CC3)nc3ccsc23)c(C)c1	inconclusive: 2 µM [inhibitor, full curve, poor fit]
Cc1cccc(CS(=O)(=O)c2ncc(Cl)c(C(=O)Nc3ccc(F)cc3)n2)c1	inconclusive: 3.98 µM [inhibitor, full curve, poor fit]
CN1C/C(=C\c2ccc(N3CCOCC3)cc2)C(=O)/C(=C/c2ccc(N3CCOCC3)cc2)C1	inconclusive: 35.5 µM [inhibitor, single point]
CCOc1ccccc1NC(=O)CN(c1ccc(OC)cc1)S(=O)(=O)c1c(C)noc1C	inconclusive: 1.58 µM [inhibitor, full curve, poor fit]
C[C@@H](Nc1nc(Cl)nc2nc[nH]c12)c1ccccc1	inactive
CC(C)c1nnc(NC(=O)c2nc(S(=O)(=O)Cc3ccc(F)cc3)ncc2Cl)s1	inactive
O=c1[nH]c(SCc2ccc(Cl)cc2)nc2[nH]ncc12	inconclusive: 12.6 µM [inhibitor, single point]
CCOC(=O)c1c(C)[nH]c(C2=NNC(=NC(C)COC)SC2)c1C (stereo not given)	inconclusive: 25.1 µM [inhibitor, single point]

SMILES	Potency
COc1ccc(/C=N/NC(=O)c2[nH]c3ccc(Br)cc3c2-c2ccccc2)c(C(=O)O)c1OC	inconclusive: 20 µM [inhibitor, single point]
CCN1/C(=C/c2ccc3ccccc3[n+]2CC)C=Cc2ccccc21	inconclusive: 11.2 µM [inhibitor, partial curve]
Cn1cc(/C=C/c2ccc3ccccc3n2)c2ccccc21	inconclusive: 11.2 µM [inhibitor, partial curve, poor fit]
CC(=O)ON=C1C=CC(=C(C#N)c2ccccc2)C=C1	inconclusive: 3.55 µM [inhibitor, single point]
Cc1cccc(N2CCN(C(=O)c3ccc4[nH]c(C)c(C)c4c3)CC2)c1C	inconclusive: 1.41 µM [inhibitor, partial curve, poor fit]
COc1ccc2cc3cc(C(=O)N4CCN(Cc5ccc6c(c5)OCO6)CC4)oc3nc2c1	inactive
CS(=O)(=O)c1ccc(C(=O)OCC(=O)NCc2cccs2)cc1[N+](=O)[O-]	inactive
Cc1cccnc1NC(=S)NC(=O)c1cncc(Br)c1	inactive
COc1ccc(/C=N/NC(=O)c2cccnc2)cc1CSc1nc2ccccc2s1	inconclusive: 1.58 µM [inhibitor, full curve, poor fit]
Cc1ccc(C(=O)/C=C/c2ccc(-c3ccc(C)cc3)o2)cc1	inconclusive: 35.5 µM [inhibitor, single point]
CC1(C)Cc2nc3sc4c(=O)n(CC(=O)NCc5ccco5)cnc4c3cc2CO1	inconclusive: 11.2 µM [inhibitor, single point]
CCc1ccc2nc(SCC(=O)Nc3ccccc3N3CCOCC3)c(C#N)cc2c1	inconclusive: 1.26 µM [inhibitor, full curve, poor fit]
O=S(=O)(CCSc1ccccn1)c1nc2ccccc2s1	inconclusive: 14.1 µM [inhibitor, single point]
CC(C)(C)c1ccc(CN(Cc2ccco2)c2cnc(S(C)(=O)=O)nc2C(=O)Nc2ccc(F)cc2)cc1	inactive
CC1=Nc2cc(C(=O)NCCCOC(C)C)ccc2Sc2ccc(C)cc21	inconclusive: 0.562 µM [inhibitor, full curve, poor fit]
COC(=O)c1cc(=O)n(-c2ccc(F)cc2)c(=Nc2ccc(F)cc2)s1	inconclusive: 35.5 µM [inhibitor, single point]
COC(=O)/C=C/c1ccccc1S(=O)(=O)N(Cc1ccccc1)Cc1ccco1	inconclusive: 1.41 µM [inhibitor, full curve, poor fit] and inconclusive: 562 nM [inhibitor, full curve, poor fit]
CCc1ccc(-c2cc3c(=O)n(CC(=O)NCCN4CCCCC4C)nc(C)n3n2)cc1 (stereo not given)	inactive
O=C(N/N=C/c1c(-c2ccccc2)[nH]c2ccccc12)c1cccnc1	inconclusive: 10 µM [inhibitor, partial curve]
CCN(CC)c1ccc2cc(-c3nc4ccccc4[nH]3)c(=O)oc2c1	inconclusive: 3.55 µM [inhibitor, full curve, poor fit]
